T1: Activin A (UniProt P08476 311-426)
T1 sequence (looked up): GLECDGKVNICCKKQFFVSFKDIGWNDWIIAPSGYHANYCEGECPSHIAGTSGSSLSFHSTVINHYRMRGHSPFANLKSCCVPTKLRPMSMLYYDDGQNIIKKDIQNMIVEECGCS

T2: Myostatin (UniProt O14793 267-375)
T2 sequence (looked up): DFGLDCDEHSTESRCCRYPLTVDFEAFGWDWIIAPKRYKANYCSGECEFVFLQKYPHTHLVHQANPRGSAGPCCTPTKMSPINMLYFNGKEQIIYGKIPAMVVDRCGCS

T3: BMP-10 (UniProt O95393 317-424)
T3 construct: bought protein; also called bone morphogenic protein-10
T3 sequence (looked up): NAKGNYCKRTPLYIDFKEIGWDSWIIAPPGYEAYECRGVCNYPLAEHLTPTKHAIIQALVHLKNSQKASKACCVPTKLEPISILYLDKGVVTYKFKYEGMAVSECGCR


target: T1, Activin A; experiment: cell-based or functional assay

Activin A IC50, cell-based assay for SMAD pathway (A204 luciferase reporter)	Binder
1.4 nM	FS315ΔHBS-hFcLALA (Fc fusion) GNCWLRQAKNGRCQVLYKTELSKEECCSTGRLSTSWTEEDVNDNTLFKWMIFNGGAPNCIPCKETCENVDCGPGSTCVVDQTNNAYCVCAPDCSNITWKGPVCGLDGKTYRNECALLKARCKEQPELEVQYQGRCKKTCRDVFCPGSSTCVVDQTNNAYCVTCNRICPEPASSEQYLCGNDGVTYSSACHLRKATCLLGRSIGLAYEGKCIKAKSCEDIQCTGGKKCLWDFKVGRGRCSLCDELCPDSKSDEPVCASDNATYASECAMKEAACSSGVLLEVKHSGSCNSISEDTEEEEEDEDQDYSFPISSILEW[here human IgG1 Fc with changes without letters]
0.6 nM	FS315K82E-hFcLALA (Fc fusion) GNCWLRQAKNGRCQVLYKTELSKEECCSTGRLSTSWTEEDVNDNTLFKWMIFNGGAPNCIPCKETCENVDCGPGKKCRMNKENKPRCVCAPDCSNITWKGPVCGLDGKTYRNECALLKARCKEQPELEVQYQGRCKKTCRDVFCPGSSTCVVDQTNNAYCVTCNRICPEPASSEQYLCGNDGVTYSSACHLRKATCLLGRSIGLAYEGKCIKAKSCEDIQCTGGKKCLWDFKVGRGRCSLCDELCPDSKSDEPVCASDNATYASECAMKEAACSSGVLLEVKHSGSCNSISEDTEEEEEDEDQDYSFPISSILEW[here human IgG1 Fc with changes without letters]
1 nM	FS315K(76,82,84)E-hFcLALA (Fc fusion, printed only as 'K(76,82,84)E') GNCWLRQAKNGRCQVLYKTELSKEECCSTGRLSTSWTEEDVNDNTLFKWMIFNGGAPNCIPCKETCENVDCGPGKECRMNKENEPRCVCAPDCSNITWKGPVCGLDGKTYRNECALLKARCKEQPELEVQYQGRCKKTCRDVFCPGSSTCVVDQTNNAYCVTCNRICPEPASSEQYLCGNDGVTYSSACHLRKATCLLGRSIGLAYEGKCIKAKSCEDIQCTGGKKCLWDFKVGRGRCSLCDELCPDSKSDEPVCASDNATYASECAMKEAACSSGVLLEVKHSGSCNSISEDTEEEEEDEDQDYSFPISSILEW[here human IgG1 Fc with changes without letters]
1 nM	FS315R78E/K82E-hFcLALA (Fc fusion) GNCWLRQAKNGRCQVLYKTELSKEECCSTGRLSTSWTEEDVNDNTLFKWMIFNGGAPNCIPCKETCENVDCGPGKKCEMNKENKPRCVCAPDCSNITWKGPVCGLDGKTYRNECALLKARCKEQPELEVQYQGRCKKTCRDVFCPGSSTCVVDQTNNAYCVTCNRICPEPASSEQYLCGNDGVTYSSACHLRKATCLLGRSIGLAYEGKCIKAKSCEDIQCTGGKKCLWDFKVGRGRCSLCDELCPDSKSDEPVCASDNATYASECAMKEAACSSGVLLEVKHSGSCNSISEDTEEEEEDEDQDYSFPISSILEW[here human IgG1 Fc with changes without letters]
0.6 nM	FS315K(76,81,82)E/V88E-hFcLALA (Fc fusion) GNCWLRQAKNGRCQVLYKTELSKEECCSTGRLSTSWTEEDVNDNTLFKWMIFNGGAPNCIPCKETCENVDCGPGKECRMNEENKPRCECAPDCSNITWKGPVCGLDGKTYRNECALLKARCKEQPELEVQYQGRCKKTCRDVFCPGSSTCVVDQTNNAYCVTCNRICPEPASSEQYLCGNDGVTYSSACHLRKATCLLGRSIGLAYEGKCIKAKSCEDIQCTGGKKCLWDFKVGRGRCSLCDELCPDSKSDEPVCASDNATYASECAMKEAACSSGVLLEVKHSGSCNSISEDTEEEEEDEDQDYSFPISSILEW[here human IgG1 Fc with changes without letters]

target: T2, Myostatin; experiment: cell-based or functional assay

Myostatin IC50, cell-based assay for SMAD pathway (A204 luciferase reporter)	Binder
0.6 nM	FS315K(76,81,82)E/V88E-hFcLALA (Fc fusion) GNCWLRQAKNGRCQVLYKTELSKEECCSTGRLSTSWTEEDVNDNTLFKWMIFNGGAPNCIPCKETCENVDCGPGKECRMNEENKPRCECAPDCSNITWKGPVCGLDGKTYRNECALLKARCKEQPELEVQYQGRCKKTCRDVFCPGSSTCVVDQTNNAYCVTCNRICPEPASSEQYLCGNDGVTYSSACHLRKATCLLGRSIGLAYEGKCIKAKSCEDIQCTGGKKCLWDFKVGRGRCSLCDELCPDSKSDEPVCASDNATYASECAMKEAACSSGVLLEVKHSGSCNSISEDTEEEEEDEDQDYSFPISSILEW[here human IgG1 Fc with changes without letters]

target: T2, Myostatin; experiment: SPR

Kd	Binder
0.0111 nM	FS315G74N/K76T-hFcLALA (Fc fusion, printed only as 'G74N/K76T') GNCWLRQAKNGRCQVLYKTELSKEECCSTGRLSTSWTEEDVNDNTLFKWMIFNGGAPNCIPCKETCENVDCGPNKTCRMNKKNKPRCVCAPDCSNITWKGPVCGLDGKTYRNECALLKARCKEQPELEVQYQGRCKKTCRDVFCPGSSTCVVDQTNNAYCVTCNRICPEPASSEQYLCGNDGVTYSSACHLRKATCLLGRSIGLAYEGKCIKAKSCEDIQCTGGKKCLWDFKVGRGRCSLCDELCPDSKSDEPVCASDNATYASECAMKEAACSSGVLLEVKHSGSCNSISEDTEEEEEDEDQDYSFPISSILEW[here human IgG1 Fc with changes without letters]

target: T2, Myostatin; experiment: SPR (BIAcore), anti-human Fc capture, myostatin as analyte

Kd	Binder
0.0045 nM	FS315K(76,81,82)E/V88E-hFcLALA (Fc fusion) GNCWLRQAKNGRCQVLYKTELSKEECCSTGRLSTSWTEEDVNDNTLFKWMIFNGGAPNCIPCKETCENVDCGPGKECRMNEENKPRCECAPDCSNITWKGPVCGLDGKTYRNECALLKARCKEQPELEVQYQGRCKKTCRDVFCPGSSTCVVDQTNNAYCVTCNRICPEPASSEQYLCGNDGVTYSSACHLRKATCLLGRSIGLAYEGKCIKAKSCEDIQCTGGKKCLWDFKVGRGRCSLCDELCPDSKSDEPVCASDNATYASECAMKEAACSSGVLLEVKHSGSCNSISEDTEEEEEDEDQDYSFPISSILEW[here human IgG1 Fc with changes without letters]
0.0109 nM	FS315K(76,81,82)A-GGG-hFcLALA (Fc fusion, built from its name) GNCWLRQAKNGRCQVLYKTELSKEECCSTGRLSTSWTEEDVNDNTLFKWMIFNGGAPNCIPCKETCENVDCGPGKACRMNAANKPRCVCAPDCSNITWKGPVCGLDGKTYRNECALLKARCKEQPELEVQYQGRCKKTCRDVFCPGSSTCVVDQTNNAYCVTCNRICPEPASSEQYLCGNDGVTYSSACHLRKATCLLGRSIGLAYEGKCIKAKSCEDIQCTGGKKCLWDFKVGRGRCSLCDELCPDSKSDEPVCASDNATYASECAMKEAACSSGVLLEVKHSGSCNSISEDTEEEEEDEDQDYSFPISSILEWGGG[here human IgG1 Fc with changes without letters]

More lines, now with the values behind:

Binder	Kd
FS315K(76,81)E-hFcLALA (Fc fusion) GNCWLRQAKNGRCQVLYKTELSKEECCSTGRLSTSWTEEDVNDNTLFKWMIFNGGAPNCIPCKETCENVDCGPGKECRMNEKNKPRCVCAPDCSNITWKGPVCGLDGKTYRNECALLKARCKEQPELEVQYQGRCKKTCRDVFCPGSSTCVVDQTNNAYCVTCNRICPEPASSEQYLCGNDGVTYSSACHLRKATCLLGRSIGLAYEGKCIKAKSCEDIQCTGGKKCLWDFKVGRGRCSLCDELCPDSKSDEPVCASDNATYASECAMKEAACSSGVLLEVKHSGSCNSISEDTEEEEEDEDQDYSFPISSILEW[here human IgG1 Fc with changes without letters]	0.011 nM
FS303K(76,81,82)A-GGG-hFcLALA (Fc fusion, built from its name) GNCWLRQAKNGRCQVLYKTELSKEECCSTGRLSTSWTEEDVNDNTLFKWMIFNGGAPNCIPCKETCENVDCGPGKACRMNAANKPRCVCAPDCSNITWKGPVCGLDGKTYRNECALLKARCKEQPELEVQYQGRCKKTCRDVFCPGSSTCVVDQTNNAYCVTCNRICPEPASSEQYLCGNDGVTYSSACHLRKATCLLGRSIGLAYEGKCIKAKSCEDIQCTGGKKCLWDFKVGRGRCSLCDELCPDSKSDEPVCASDNATYASECAMKEAACSSGVLLEVKHSGSCNSISEDTEEEEEDEDQGGG[here human IgG1 Fc with changes without letters]	0.0116 nM
FS303K82T-GGG-hFcLALA (Fc fusion, built from its name) GNCWLRQAKNGRCQVLYKTELSKEECCSTGRLSTSWTEEDVNDNTLFKWMIFNGGAPNCIPCKETCENVDCGPGKKCRMNKTNKPRCVCAPDCSNITWKGPVCGLDGKTYRNECALLKARCKEQPELEVQYQGRCKKTCRDVFCPGSSTCVVDQTNNAYCVTCNRICPEPASSEQYLCGNDGVTYSSACHLRKATCLLGRSIGLAYEGKCIKAKSCEDIQCTGGKKCLWDFKVGRGRCSLCDELCPDSKSDEPVCASDNATYASECAMKEAACSSGVLLEVKHSGSCNSISEDTEEEEEDEDQGGG[here human IgG1 Fc with changes without letters]	0.0096 nM
FS315K(81,82)A-GGG-hFcLALA (Fc fusion, built from its name: follistatin variant, GGG linker, hFcLALA) GNCWLRQAKNGRCQVLYKTELSKEECCSTGRLSTSWTEEDVNDNTLFKWMIFNGGAPNCIPCKETCENVDCGPGKKCRMNAANKPRCVCAPDCSNITWKGPVCGLDGKTYRNECALLKARCKEQPELEVQYQGRCKKTCRDVFCPGSSTCVVDQTNNAYCVTCNRICPEPASSEQYLCGNDGVTYSSACHLRKATCLLGRSIGLAYEGKCIKAKSCEDIQCTGGKKCLWDFKVGRGRCSLCDELCPDSKSDEPVCASDNATYASECAMKEAACSSGVLLEVKHSGSCNSISEDTEEEEEDEDQDYSFPISSILEWGGG[here human IgG1 Fc with changes without letters]	0.0107 nM
FS315K82T-GGG-hFcLALA (Fc fusion, built from its name) GNCWLRQAKNGRCQVLYKTELSKEECCSTGRLSTSWTEEDVNDNTLFKWMIFNGGAPNCIPCKETCENVDCGPGKKCRMNKTNKPRCVCAPDCSNITWKGPVCGLDGKTYRNECALLKARCKEQPELEVQYQGRCKKTCRDVFCPGSSTCVVDQTNNAYCVTCNRICPEPASSEQYLCGNDGVTYSSACHLRKATCLLGRSIGLAYEGKCIKAKSCEDIQCTGGKKCLWDFKVGRGRCSLCDELCPDSKSDEPVCASDNATYASECAMKEAACSSGVLLEVKHSGSCNSISEDTEEEEEDEDQDYSFPISSILEWGGG[here human IgG1 Fc with changes without letters]	0.013 nM

target: T3, BMP-10; experiment: SPR (BIAcore), anti-human Fc capture, BMP-10 as analyte

binding result	Binder
no binding (tested: 25-0.190 nM)	FS315K(76,82)E-hFcLALA (Fc fusion) GNCWLRQAKNGRCQVLYKTELSKEECCSTGRLSTSWTEEDVNDNTLFKWMIFNGGAPNCIPCKETCENVDCGPGKECRMNKENKPRCVCAPDCSNITWKGPVCGLDGKTYRNECALLKARCKEQPELEVQYQGRCKKTCRDVFCPGSSTCVVDQTNNAYCVTCNRICPEPASSEQYLCGNDGVTYSSACHLRKATCLLGRSIGLAYEGKCIKAKSCEDIQCTGGKKCLWDFKVGRGRCSLCDELCPDSKSDEPVCASDNATYASECAMKEAACSSGVLLEVKHSGSCNSISEDTEEEEEDEDQDYSFPISSILEW[here human IgG1 Fc with changes without letters]
